From patent publication US3985779A, “M-phenoxyphenyl propionic acid derivatives and preparation thereof” (Eisai Co., Ltd., priority 1973, dated 1976)
Where two headings read alike, the source gives them in different places.

Legend:
[1] = test system: Carrageenin-induced edema; test: Inhibitory activity on Carrageenin-induced Edema in rats (Experiment A); format: in vivo, rats (male Wistar); conditions: 3 hours after Carrageenin
Procedure: Inhibitory activity on Carrageenin-induced Edema in rats
Carrageenin was used as the agent for inducing edema and 5 male rats of Wistar strain having body weight of about 150 grs. after fasting for 16-17 hours were used as test animals. The inhibitory activity of the test compounds were determined with the paw edema method in accordance with Winter C. A. et al; Proc. Soc. Exp. Biol. Med. 111, 544 (1962).
The compounds were suspended in an aqueous solution of gum arabic and the same were orally administered to the rats at 1 hour before the injection of Carrageenin.
The observation was effected by measuring, after 3 hours the administration of the Carrageenin, the enlarged volumes of hind paw of the rats.

Kaolin-induced edema = test: Inhibitory activity on Kaolin-induced Edema in Rats (Experiment B); format: in vivo
Dextran-induced edema = test: Inhibitory activity on dextran-induced edema in rats (Experiment C); format: in vivo
Procedure: Inhibitory activity on dextran-induced edema in rats Experiment was carried out in the manner same as those of the preceding Experiments in which dextran was employed as irritant substance.

ARRS-induced edema = test: Inhibitory activity on anti-rat-rabbit serum (ARRS)-induced edema in rats (Experiment D); format: in vivo
Procedure: Inhibitory activity on anti-rat-rabbit serum (ARRS)-induced edema in rats Similar Experiments was carried out by using ARRS as irritant substance.

stomachs of the rats = format: in vivo; conditions: 50 mg/kg oral; score 0 (nothing unusual) to 10 (considerable irritability with bleeding)
Description: Observation of gastric irritability
Gastric irritability due to oral administration of the compounds as edema inhibitory agent was studied by macroscopical observation of the dissected stomachs of the rats which had been employed for determination of the edema inhibitions mentioned in the preceding paragraphs. The degrees of the irritability observed were scored in the 0 to 10 ratings depending upon the extent of errosions and bleedings of the stomachs, wherein the rating of 0(zero) means "nothing unusual", the rating of 10 means a state of considerable gastric irritability with bleeding and the remainders mean the intermediate degree of gastric irritability.

in vivo = conditions: mouse, po
Procedure: Comparison of toxicity of the phenyl propionic acid derivatives of the present invention and that of the other known anti-inflammatory agents was carried out in mice.

yeast-induced pyrexia = test: Antipyretic activity to the yeast-treated rats (Experiment I); format: in vivo, rats (Wistar strain male)
Procedure: To Wistar strain male rats having about 300 - 350 grs. body weight, an aqueous suspension of yeast was subcutaneously injected to induce pyrexia.
At the lapse of 4 hours since the dose of the yeast suspension, the compounds under test given in hereinaftermentioned Table 10 in a form of suspension in a 5% gum arabic aqueous solution are orally administered. The rectal temperatures of the rats were measured periodically by means of a thermister-type thermometer sold by Japan Koden K.K. As control, said 5% gum arabic aqueous solution alone was administered.

writhing syndrome = test: Analgesic activity: antagonism to acetic acid writhing syndrome in mice (Experiment J); format: in vivo, mice (dd strain male)
Procedure: Analgesic activity of the compound of the present invention in comparison with the known compounds.
Analgesic activity of the compound was tested as the measure of antagonism to writhing syndrome appeared when 0.1 ml/10g of 0.7% acetic acid was intraperitoneally injected to the dd strain male mice having 17 - 20 grs. body weight which had been abstinence from food for 18 hours.
The compounds under test were orally administered in a form of suspension in a 5% aqueous solution of gum arabic. After one hour from the administration, the onset times required for the writhing syndrome were scored.
In another Experiment in the combined use of the compounds under test and Codeine phosphate, 10 - 20 mg/kg of Codeine phosphate were orally administered immediatly after the oral administration of the compounds under test.

[2] = test system: granuloma induced by Formalin Filter paper Pellet; conditions: 6 days

SMILES: CC(C(=O)O)c1cccc(Oc2ccccc2)c1 (stereo not drawn) [Compound (1), reference compound]
- % of Inhibition ([1]; oral 2.0 mg/kg): 23%
- Edema density ± S.E. ([1]; oral 2.0 mg/kg): .417 ± .032
- % of Inhibition ([1]; oral 10.0 mg/kg, 10 mg/kg): 40%
- Edema density ± S.E. ([1]; oral 10.0 mg/kg, 10 mg/kg): .323 ± .075
- % of Inhibition ([1]; oral 50.0 mg/kg): 44%
- Edema density ± S.E. ([1]; oral 50.0 mg/kg): .300 ± .045
- % of Inhibition (Kaolin-induced edema; after 3 hrs, oral 10 mg/kg): 25%
- Edema D. ± S.E. (Kaolin-induced edema; after 3 hrs, oral 10 mg/kg): .313 ± .016
- % of Inhibition (Kaolin-induced edema; after 3 hrs, oral 50 mg/kg): 42%
- Edema D. ± S.E. (Kaolin-induced edema; after 3 hrs, oral 50 mg/kg): .245 ± .050
- % of Inhibition (Kaolin-induced edema; after 5 hrs, oral 10 mg/kg): 28%
- Edema D. ± S.E. (Kaolin-induced edema; after 5 hrs, oral 10 mg/kg): .406 ± .019
- % of Inhibition (Kaolin-induced edema; after 5 hrs, oral 50 mg/kg): 52%
- Edema D. ± S.E. (Kaolin-induced edema; after 5 hrs, oral 50 mg/kg): .272 ± .053
- % of Inhibition (Kaolin-induced edema; after 7 hrs, oral 10 mg/kg): 8%
- Edema D. ± S.E. (Kaolin-induced edema; after 7 hrs, oral 10 mg/kg): .560 ± .017
- % of Inhibition (Kaolin-induced edema; after 7 hrs, oral 50 mg/kg): 41%
- Edema D. ± S.E. (Kaolin-induced edema; after 7 hrs, oral 50 mg/kg): .356 ± .065
- % of Inhibition (Dextran-induced edema; after 2 hrs, oral 10 mg/kg): 8%
- Edema D. ± S.E. (Dextran-induced edema; after 2 hrs, oral 10 mg/kg): .771 ± .022
- % of Inhibition (Dextran-induced edema; after 2 hrs, oral 50 mg/kg): 10%
- Edema D. ± S.E. (Dextran-induced edema; after 2 hrs, oral 50 mg/kg): .751 ± .060
- % of Inhibition (Dextran-induced edema; after 3 hrs, oral 10 mg/kg): 5%
- Edema D. ± S.E. (Dextran-induced edema; after 3 hrs, oral 10 mg/kg): .710 ± .036
- % of Inhibition (Dextran-induced edema; after 3 hrs, oral 50 mg/kg): 16%
- Edema D. ± S.E. (Dextran-induced edema; after 3 hrs, oral 50 mg/kg): .631 ± .025
- % of Inhibition (ARRS-induced edema; after 2 hrs, oral 10 mg/kg): 13%
- Edema D. ± S.E. (ARRS-induced edema; after 2 hrs, oral 10 mg/kg): .593 ± .053
- % of Inhibition (ARRS-induced edema; after 2 hrs, oral 50 mg/kg): 9%
- Edema D. ± S.E. (ARRS-induced edema; after 2 hrs, oral 50 mg/kg): .620 ± .053
- % of Inhibition (ARRS-induced edema; after 3 hrs, oral 10 mg/kg): 15%
- Edema D. ± S.E. (ARRS-induced edema; after 3 hrs, oral 10 mg/kg): .620 ± .053
- % of Inhibition (ARRS-induced edema; after 3 hrs, oral 50 mg/kg): 21%
- Edema D. ± S.E. (ARRS-induced edema; after 3 hrs, oral 50 mg/kg): .566 ± .036
- Degree of gastric irritability (stomachs of the rats): 3
- LD50 (in vivo): 1400 mg/kg
- Change in rectal temperature, mean ± S.E. (yeast-induced pyrexia; 1 hr, 1.25 mg/kg p.o.): +0.18 ± 0.09
- Change in rectal temperature, mean ± S.E. (yeast-induced pyrexia; 1 hr, 20 mg/kg p.o.): -0.48 ± 0.22
- Change in rectal temperature, mean ± S.E. (yeast-induced pyrexia; 1 hr, 80 mg/kg p.o.): -0.80 ± 0.17
- Change in rectal temperature, mean ± S.E. (yeast-induced pyrexia; 1 hr, 160 mg/kg p.o.): -0.50 ± 0.11
- Change in rectal temperature, mean ± S.E. (yeast-induced pyrexia; 3 hrs, 1.25 mg/kg p.o.): +0.03 ± 0.22
- Change in rectal temperature, mean ± S.E. (yeast-induced pyrexia; 3 hrs, 5 mg/kg p.o.): -0.48 ± 0.11
- Change in rectal temperature, mean ± S.E. (yeast-induced pyrexia; 3 hrs, 20 mg/kg p.o.): -0.85 ± 0.28
- Change in rectal temperature, mean ± S.E. (yeast-induced pyrexia; 3 hrs, 80 mg/kg p.o.): -1.00 ± 0.04
- Change in rectal temperature, mean ± S.E. (yeast-induced pyrexia; 3 hrs, 160 mg/kg p.o.): -0.90 ± 0.14
- Change in rectal temperature, mean ± S.E. (yeast-induced pyrexia; 5 hrs, 1.25 mg/kg p.o.): +0.05 ± 0.17
- Change in rectal temperature, mean ± S.E. (yeast-induced pyrexia; 5 hrs, 5 mg/kg p.o.): -0.65 ± 0.19
- Change in rectal temperature, mean ± S.E. (yeast-induced pyrexia; 5 hrs, 20 mg/kg p.o.): -0.68 ± 0.35
- Change in rectal temperature, mean ± S.E. (yeast-induced pyrexia; 5 hrs, 80 mg/kg p.o.): -1.15 ± 0.11
- Change in rectal temperature, mean ± S.E. (yeast-induced pyrexia; 5 hrs, 160 mg/kg p.o.): -0.88 ± 0.12
- minimal effective dose (yeast-induced pyrexia; Rattus norvegicus, po, read-out: dose with apparent antipyretic activity): > 5 mg/kg
- dose with maximum antipyretic activity (yeast-induced pyrexia; p.o.): 20 mg/kg
- Onset time of writhing syndrome, mean ± S.E. (writhing syndrome; 10 mg/kg p.o. combined with Codeine Phosphate 10 mg/kg): 5.3 ± 0.5 min
- Onset time of writhing syndrome, mean ± S.E. (writhing syndrome; 10 mg/kg p.o. combined with Codeine Phosphate 20 mg/kg): 7.3 ± 1.2 min
- Onset time of writhing syndrome, mean ± S.E. (writhing syndrome; 20 mg/kg p.o. combined with Codeine Phosphate 10 mg/kg): 8.2 ± 1.3 min
- Onset time of writhing syndrome, mean ± S.E. (writhing syndrome; 20 mg/kg p.o. combined with Codeine Phosphate 20 mg/kg): 7.8 ± 1.2 min
- Onset time of writhing syndrome, mean ± S.E. (writhing syndrome; 40 mg/kg p.o. combined with Codeine Phosphate 10 mg/kg): 10.3 min
- Onset time of writhing syndrome, mean ± S.E. (writhing syndrome; 40 mg/kg p.o. combined with Codeine Phosphate 20 mg/kg): 13.8 ± 0.7 min
- Onset time of writhing syndrome, mean ± S.E. (writhing syndrome; 80 mg/kg p.o. combined with Codeine Phosphate 10 mg/kg): 11.8 ± 1.1 min
- Onset time of writhing syndrome, mean ± S.E. (writhing syndrome; 80 mg/kg p.o. combined with Codeine Phosphate 20 mg/kg): 13.8 ± 0.8 min
- minimal effective dose (writhing syndrome; Mus musculus, 1 h, single oral administration, read-out: dose with significant antagonism / retardation of writhing syndrome): > 20 mg/kg
- Onset time of writhing syndrome, mean ± S.E. (writhing syndrome; test compound alone, 10 mg/kg p.o.): 3.9 ± 0.3 min
- Onset time of writhing syndrome, mean ± S.E. (writhing syndrome; test compound alone, 20 mg/kg p.o.): 7.1 ± 1.8 min
- Onset time of writhing syndrome, mean ± S.E. (writhing syndrome; test compound alone, 40 mg/kg p.o.): 5.2 ± 1.4 min
- Onset time of writhing syndrome, mean ± S.E. (writhing syndrome; test compound alone, 80 mg/kg p.o.): 8.1 ± 1.7 min
- Adrenal ([2]; daily oral 10 mg/kg): 37.2 mg
- Thymus ([2]; daily oral 10 mg/kg): 588 mg
- Adrenal ([2]; daily oral 50 mg/kg): 43.4 mg
- Thymus ([2]; daily oral 50 mg/kg): 502 mg
